{"source": "the supplement of paper PMC12067230", "note": "This is a noisy data set.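 Further: [psi-pin-] Saccharomyces cerevisiae expressing SupN fusions, induced by 100 µM Cu2SO4, selected 7 d at 30 °C without adenine and uracil, scored by deep sequencing of output versus input.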"}
{"experiment": "amyloid nucleation score relative to library mode (yeast Sup35 reporter selection) (log enrichment difference); higher = more amyloid nucleation", "settings": "random library (experiment): 1;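 active = nucleation score significantly above 0 at FDR 0.05; inactive = not significantly above 0 or absent from output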"}
{"sequence": "EASNCFAIRHFENKFAVETLICRRPGD", "amyloid nucleation score": "inactive"}
{"sequence": "EASNCFAIRHFENKFAVETLICTK", "amyloid nucleation score": "inactive"}
{"sequence": "EASNCFAIRHFENKFAVETLICWRALFGRRGDRR", "amyloid nucleation score": "inactive"}
{"sequence": "EASNCFAIRHFENKFAVETLICPAYYMSSAWKSG", "amyloid nucleation score": "inactive"}
{"sequence": "EASNCFAIRHFENKFAVETLICRDWWFTYFDNGR", "amyloid nucleation score": 1.99}
{"sequence": "EASNCFAIRHFENKFAVETLICYIARRVVRMWTR", "amyloid nucleation score": "inactive"}
{"sequence": "EASNCFAIRHFENKFAVETLICRGCSWLDLFRGW", "amyloid nucleation score": "inactive"}
{"sequence": "EASNCFAIRHFENKFAVETLICLARETRLLGTGG", "amyloid nucleation score": "inactive"}
{"sequence": "EASNCFAIRHFENKFAVETLICKSGLDYAAIRLW", "amyloid nucleation score": "inactive"}
{"sequence": "EASNCFAIRHFENKFAVETLICMWPVGWGEQYGE", "amyloid nucleation score": 7.16}
{"sequence": "EASNCFAIRHFENKFAVETLICVRCVEEVVPGFR", "amyloid nucleation score": "inactive"}
{"sequence": "EASNCFAIRHFENKFAVETLICIAGIVT", "amyloid nucleation score": "inactive"}
{"sequence": "EASNCFAIRHFENKFAVETLICLIELETLDSYLR", "amyloid nucleation score": "inactive"}
{"sequence": "EASNCFAIRHFENKFAVETLICRLGLSQLTWMGG", "amyloid nucleation score": "inactive"}
{"sequence": "EASNCFAIRHFENKFAVETLICPWI", "amyloid nucleation score": "inactive"}
{"sequence": "EASNCFAIRHFENKFAVETLICHSQSGGYASYG", "amyloid nucleation score": 0.946}
{"sequence": "EASNCFAIRHFENKFAVETLICRVRTICVYVTLC", "amyloid nucleation score": "inactive"}
{"sequence": "EASNCFAIRHFENKFAVETLICMSLRKMPFSSAC", "amyloid nucleation score": "inactive"}
{"sequence": "EASNCFAIRHFENKFAVETLICRDS", "amyloid nucleation score": "inactive"}
{"sequence": "EASNCFAIRHFENKFAVETLICCARIVYLHLDDM", "amyloid nucleation score": "inactive"}
{"sequence": "EASNCFAIRHFENKFAVETLICFVLSWGRTYWIT", "amyloid nucleation score": 0.539}
{"sequence": "EASNCFAIRHFENKFAVETLICGCVDSFMIYAQA", "amyloid nucleation score": "inactive"}
{"sequence": "EASNCFAIRHFENKFAVETLICKVDYTFEIDCQV", "amyloid nucleation score": 1.49}
{"sequence": "EASNCFAIRHFENKFAVETLICTVS", "amyloid nucleation score": 7.88}
{"sequence": "EASNCFAIRHFENKFAVETLICTVRAKSYMSVSS", "amyloid nucleation score": "inactive"}
{"sequence": "EASNCFAIRHFENKFAVETLICCVCSTAWLVVVS", "amyloid nucleation score": "inactive"}
{"sequence": "EASNCFAIRHFENKFAVETLICGMFIQLHRMSPL", "amyloid nucleation score": "inactive"}
{"sequence": "EASNCFAIRHFENKFAVETLICRLAPVSLFRCGW", "amyloid nucleation score": "inactive"}
{"sequence": "EASNCFAIRHFENKFAVETLICGASCVYYAVAFR", "amyloid nucleation score": "inactive"}
{"sequence": "EASNCFAIRHFENKFAVETLICCWSDYYWNRGKC", "amyloid nucleation score": 5.95}
{"sequence": "EASNCFAIRHFENKFAVETLICVIEGSLAVVE", "amyloid nucleation score": "inactive"}
{"sequence": "EASNCFAIRHFENKFAVETLICLNSGPTHSYAER", "amyloid nucleation score": "inactive"}
{"sequence": "EASNCFAIRHFENKFAVETLICVLWSPYFLMRVR", "amyloid nucleation score": "inactive"}
{"sequence": "EASNCFAIRHFENKFAVETLICCVPHLNCDPFRC", "amyloid nucleation score": 6.27}
{"sequence": "EASNCFAIRHFENKFAVETLICMDRGDTALSDRP", "amyloid nucleation score": -0.0385}
{"sequence": "EASNCFAIRHFENKFAVETLICNLNSGGRKTVSR", "amyloid nucleation score": 4.81}
{"sequence": "EASNCFAIRHFENKFAVETLICYLGWTRSIELSS", "amyloid nucleation score": "inactive"}
{"sequence": "EASNCFAIRHFENKFAVETLICNMRVLCWQPVGD", "amyloid nucleation score": 4.52}
{"sequence": "EASNCFAIRHFENKFAVETLICRLNVGSDQALLV", "amyloid nucleation score": "inactive"}
{"sequence": "EASNCFAIRHFENKFAVETLICCPVGE", "amyloid nucleation score": 5.01}
{"sequence": "EASNCFAIRHFENKFAVETLICGYGHHNRSKYWR", "amyloid nucleation score": 2.26}
{"sequence": "EASNCFAIRHFENKFAVETLICIKVESGCMGSPG", "amyloid nucleation score": 2.77}
{"sequence": "EASNCFAIRHFENKFAVETLICLIMNSFMYAL", "amyloid nucleation score": "inactive"}
{"sequence": "EASNCFAIRHFENKFAVETLICHRWIQWVRHLRY", "amyloid nucleation score": "inactive"}
{"sequence": "EASNCFAIRHFENKFAVETLICGRRARLGGTVFA", "amyloid nucleation score": "inactive"}
{"sequence": "EASNCFAIRHFENKFAVETLICLSRLNTFRSMAG", "amyloid nucleation score": "inactive"}
{"sequence": "EASNCFAIRHFENKFAVETLICYPTVQEFGPTRL", "amyloid nucleation score": 2.86}
{"sequence": "EASNCFAIRHFENKFAVETLICEPNRYSRGLVGF", "amyloid nucleation score": "inactive"}
{"sequence": "EASNCFAIRHFENKFAVETLICQCAVCR", "amyloid nucleation score": 3.45}
{"sequence": "EASNCFAIRHFENKFAVETLICCIGKVCVKWYWG", "amyloid nucleation score": "inactive"}
{"sequence": "EASNCFAIRHFENKFAVETLICCLSVNRASIPGW", "amyloid nucleation score": 6.1}
{"sequence": "EASNCFAIRHFENKFAVETLICTCAHGTVRIVSV", "amyloid nucleation score": "inactive"}
{"sequence": "EASNCFAIRHFENKFAVETLICCVLISESDVPVA", "amyloid nucleation score": 6.63}
{"sequence": "EASNCFAIRHFENKFAVETLICDSNFVRSLCAHT", "amyloid nucleation score": "inactive"}
{"sequence": "EASNCFAIRHFENKFAVETLICAYFGSLMAFSNT", "amyloid nucleation score": "inactive"}
{"sequence": "EASNCFAIRHFENKFAVETLICFDDSSPSEDGVA", "amyloid nucleation score": "inactive"}
{"sequence": "EASNCFAIRHFENKFAVETLICAMCWWYNWVLSL", "amyloid nucleation score": -0.203}
{"sequence": "EASNCFAIRHFENKFAVETLICMRSYGRRSYVTD", "amyloid nucleation score": 3.54}
{"sequence": "EASNCFAIRHFENKFAVETLICFGW", "amyloid nucleation score": 8.06}
{"experiment": "amyloid nucleation score relative to library mode (yeast Sup35 reporter selection) (log enrichment difference); higher = more amyloid nucleation", "settings": "random library (experiment): 2"}
{"sequence": "EASNCFAIRHFENKFAVETLICYSTSQF", "amyloid nucleation score": 4.39}
{"sequence": "EASNCFAIRHFENKFAVETLICLFIMVMDWRR", "amyloid nucleation score": "inactive"}
{"sequence": "EASNCFAIRHFENKFAVETLICMSVWI", "amyloid nucleation score": 5.98}
{"sequence": "EASNCFAIRHFENKFAVETLICASKCDSFIRLVA", "amyloid nucleation score": "inactive"}
{"sequence": "EASNCFAIRHFENKFAVETLICLVLTQRILCMTI", "amyloid nucleation score": "inactive"}
{"sequence": "EASNCFAIRHFENKFAVETLICAFFIPIGSDLVW", "amyloid nucleation score": "inactive"}
{"sequence": "EASNCFAIRHFENKFAVETLICFLLALIVVFSLW", "amyloid nucleation score": 3.33}
{"sequence": "EASNCFAIRHFENKFAVETLICRTRRVLTGKKLS", "amyloid nucleation score": "inactive"}
{"sequence": "EASNCFAIRHFENKFAVETLICFNEYYVFNGKFG", "amyloid nucleation score": "inactive"}
{"sequence": "EASNCFAIRHFENKFAVETLICLFMMIFYCRVLT", "amyloid nucleation score": "inactive"}
{"sequence": "EASNCFAIRHFENKFAVETLICAESVDFSLMCDL", "amyloid nucleation score": "inactive"}
{"sequence": "EASNCFAIRHFENKFAVETLICHIYVYVYKLLTV", "amyloid nucleation score": "inactive"}
{"sequence": "EASNCFAIRHFENKFAVETLICLIYISESGYIQW", "amyloid nucleation score": "inactive"}
{"sequence": "EASNCFAIRHFENKFAVETLICHMWYLNEIMRCG", "amyloid nucleation score": 0.511}
{"sequence": "EASNCFAIRHFENKFAVETLICAHYFSCAWSCPG", "amyloid nucleation score": "inactive"}
{"sequence": "EASNCFAIRHFENKFAVETLICCTYWCSVESSDY", "amyloid nucleation score": 7.77}
{"sequence": "EASNCFAIRHFENKFAVETLICMSWYYFTAHHDI", "amyloid nucleation score": "inactive"}
{"sequence": "EASNCFAIRHFENKFAVETLICREGGA", "amyloid nucleation score": "inactive"}
{"sequence": "EASNCFAIRHFENKFAVETLICAVNVT", "amyloid nucleation score": 4.79}
{"sequence": "EASNCFAIRHFENKFAVETLICVNMGPSLPDPLV", "amyloid nucleation score": 4.53}
{"sequence": "EASNCFAIRHFENKFAVETLICEDGVVGSFKDSA", "amyloid nucleation score": "inactive"}
{"sequence": "EASNCFAIRHFENKFAVETLICVICSTCYAKRWN", "amyloid nucleation score": "inactive"}
{"sequence": "EASNCFAIRHFENKFAVETLICPMCSC", "amyloid nucleation score": "inactive"}
{"sequence": "EASNCFAIRHFENKFAVETLICLRIKSLLTMIHT", "amyloid nucleation score": "inactive"}
{"sequence": "EASNCFAIRHFENKFAVETLICIFGNILYLCLGT", "amyloid nucleation score": "inactive"}
{"sequence": "EASNCFAIRHFENKFAVETLICYSILWLVDLADR", "amyloid nucleation score": 3.83}
{"sequence": "EASNCFAIRHFENKFAVETLICMEVIFRSFISLV", "amyloid nucleation score": "inactive"}
{"sequence": "EASNCFAIRHFENKFAVETLICRFVIRRWGFQWW", "amyloid nucleation score": "inactive"}
{"sequence": "EASNCFAIRHFENKFAVETLICVMSNMW", "amyloid nucleation score": 2.41}
{"sequence": "EASNCFAIRHFENKFAVETLICRDLIANLNCNFV", "amyloid nucleation score": 6.13}
{"sequence": "EASNCFAIRHFENKFAVETLICDLLSRAQCSLRE", "amyloid nucleation score": "inactive"}
{"sequence": "EASNCFAIRHFENKFAVETLICWTDPTLNRRVCG", "amyloid nucleation score": "inactive"}
{"sequence": "EASNCFAIRHFENKFAVETLICMLRESGMGNTCW", "amyloid nucleation score": -0.122}
{"sequence": "EASNCFAIRHFENKFAVETLICELNNFIFHSAEL", "amyloid nucleation score": 7.7}
{"sequence": "EASNCFAIRHFENKFAVETLICVSTLSNMRVLL", "amyloid nucleation score": 4.15}
{"experiment": "amyloid nucleation score relative to library mode (yeast Sup35 reporter selection) (log enrichment difference); higher = more amyloid nucleation; sequences are the first 22 residues of the Bri2 peptide extended by up to 12 random residues", "settings": "random library (experiment): 3"}
{"sequence": "EASNCFAIRHFENKFAVETLICPGRTQIRMQPFM", "amyloid nucleation score": "inactive"}
{"sequence": "EASNCFAIRHFENKFAVETLICCDWWWYGEIAFW", "amyloid nucleation score": "inactive"}
{"sequence": "EASNCFAIRHFENKFAVETLICPWSVRSNDSGRT", "amyloid nucleation score": "inactive"}
{"sequence": "EASNCFAIRHFENKFAVETLICVLLVMQCLMARH", "amyloid nucleation score": "inactive"}
{"sequence": "EASNCFAIRHFENKFAVETLICTIVFCIKLCSVW", "amyloid nucleation score": "inactive"}
{"sequence": "EASNCFAIRHFENKFAVETLICHEKCGWELSS", "amyloid nucleation score": 0.334}
{"sequence": "EASNCFAIRHFENKFAVETLICYSS", "amyloid nucleation score": "inactive"}
{"sequence": "EASNCFAIRHFENKFAVETLICDLGITYREILNA", "amyloid nucleation score": "inactive"}
{"sequence": "EASNCFAIRHFENKFAVETLICTAFGLFSEKRRR", "amyloid nucleation score": 6.51}
{"sequence": "EASNCFAIRHFENKFAVETLICVWLPYADLGRRN", "amyloid nucleation score": 3.92}
{"sequence": "EASNCFAIRHFENKFAVETLICMDSV", "amyloid nucleation score": "inactive"}
{"sequence": "EASNCFAIRHFENKFAVETLICEAESGGKSTVWR", "amyloid nucleation score": "inactive"}
{"sequence": "EASNCFAIRHFENKFAVETLICVVCRYRLELESP", "amyloid nucleation score": "inactive"}
{"sequence": "EASNCFAIRHFENKFAVETLICLDPLTCAPCNMW", "amyloid nucleation score": 4.46}
{"sequence": "EASNCFAIRHFENKFAVETLICWFSSPNTYQRFM", "amyloid nucleation score": 0.702}
{"sequence": "EASNCFAIRHFENKFAVETLICQSCIDWRWIRTA", "amyloid nucleation score": "inactive"}
{"sequence": "EASNCFAIRHFENKFAVETLICKPLCHYKSNR", "amyloid nucleation score": "inactive"}
{"sequence": "EASNCFAIRHFENKFAVETLICVHRHRRKVAPAR", "amyloid nucleation score": "inactive"}
{"sequence": "EASNCFAIRHFENKFAVETLICRTGRHLPTVSVK", "amyloid nucleation score": "inactive"}
{"sequence": "EASNCFAIRHFENKFAVETLICTPPLVSRLTAGW", "amyloid nucleation score": "inactive"}
{"sequence": "EASNCFAIRHFENKFAVETLICVRLFKDHNAPHS", "amyloid nucleation score": "inactive"}
{"sequence": "EASNCFAIRHFENKFAVETLICRADRSWTDIDD", "amyloid nucleation score": "inactive"}
{"sequence": "EASNCFAIRHFENKFAVETLICLEPPHQHMRVKR", "amyloid nucleation score": "inactive"}
{"sequence": "EASNCFAIRHFENKFAVETLICFFRHRAPTACGL", "amyloid nucleation score": "inactive"}
